Whole data set: some 33,000 sequences, median “E-score (dimensionless, -0.5 to 0.5)” near -0.058, cut for the highest 2% near 0.35. This is one part of the list.
System: MvaT
Assay: PBM 8-mer E-score (mean of HK and ME arrays) (E-score (dimensionless, -0.5 to 0.5)); higher = stronger relative binding preference; most listed sequences are background and not binding sites
Protocol: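 Protein binding microarray: GST-tagged full-length MvaT (P. aeruginosa PAO1) bound to two universal double-stranded 60-mer arrays (ME and HK), each with a constant 25-mer primer and a variable 35-mer region covering all 8-mers. The 8-mer E-score (rank-based, range -0.5 to 0.5, >0.45 = specific binding) is the mean of the two arrays.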

Sequence | PBM 8-mer E-score
CCATGCAA | -0.0676
GCGACTAC | -0.0345
ACAACTCC | 0.0704
ACTGGCTG | -0.194
ATAATGGC | 0.234
GTCGAAAA | 0.174
AATGCTCC | -0.079
AGCCTGGG | -0.228
CAACCTAG | -0.119
CAGTCCCA | -0.127
AGAAGTTC | 0.223
CTATACGC | 0.0769
CTGCTTCC | -0.255
AATTAACA | 0.333
TGGCGACA | -0.132
TAAAACTA | 0.316
ATCCGGGG | -0.24
AAAGGTTC | -0.0305
TCAGTGCA | 0.00999
GAACACAC | -0.04
CAGCAGGA | -0.308
AACCGGGA | -0.146
AAGGGAAG | -0.1
CTTGGTCC | -0.233
CACAACAG | -0.00307

Sequence | PBM 8-mer E-score
AGAATACG | 0.0799
CAATGGTC | -0.157
CAAATCCG | -0.0845
GACCAGGC | -0.211
ACGCTTAT | 0.18
GAGTCCTA | -0.196
ATAGGGTA | 0.131
AACTCCAC | -0.05
AAGGTCAA | -0.0518
GCAGAGCA | -0.294
CTTGCGAC | -0.139
ATTTGGAA | 0.0956
TAATTCCA | 0.311
CTAGGATC | -0.252
AGATTAGC | 0.0442
GTGCAGAA | -0.0766
AGAGACAG | -0.0467
TCGGTGCA | -0.118
CTCACATA | 0.132
TAGTGGAA | 0.171
TGAAGGCA | -0.166
CATGCATA | 0.00319
GCTTAACA | 0.0832
CGGCCCCA | -0.221
ATCGAGCC | -0.173

Sequence | PBM 8-mer E-score
GCGCCGGA | -0.0918
CGGCGATC | -0.156
CCGGCAGA | -0.0459
AGCTGTGA | 0.0387
CTTTAGTA | 0.188
AGAATGAT | 0.133
AAATCCAG | -0.114
GTTCGTAA | 0.0968
GTTGTCCA | 0.0268
AAGTACTC | 0.137
CAATAGTA | 0.264
CCGGGTCC | -0.276
TAATACAA | 0.397
GATTATTA | 0.391
AATTTAGA | 0.183
AAGATTAT | 0.286
TCCCTTAA | 0.0713
GTTGCAGA | -0.0379
TTCTACAA | 0.142
AAATATGC | 0.305
GAATGGAC | -0.184
CCGTATTA | 0.121
TAGGTATA | 0.193
GGTGGCTA | -0.11
TCCGCCCA | -0.123

Sequence | PBM 8-mer E-score
AAATCCCA | 0.0842
CCAACCGC | -0.0513
AGTATCTA | 0.18
CCTTAGGC | -0.189
AGTGTGCG | -0.0111
ATTCGTCA | 0.0938
ACCCTGAC | -0.231
GGATCTGA | -0.13
CAATGGGA | -0.00579
ATGGTATC | -0.0093
GTTATTGA | 0.311
ATGGTGTC | -0.0135
ACGATTCC | -0.0656
GGGAAGTA | 0.0498
TCCCCGAA | -0.195
GGTCCTAA | -0.114
CGCCTAGA | -0.183
CATAGGCA | -0.0952
GTCACTTA | -0.00887
ATGGGCCG | -0.236
GACGCATC | -0.259
CCGCTGTA | -0.229
CGCCCACG | -0.225
CAATCGCA | -0.0362
ACGACTCA | -0.0313

Sequence | PBM 8-mer E-score
AAGAGGTC | -0.209
GCCGTTAA | 0.107
ACAGCCTA | -0.0691
ATCAACTG | -0.0168
CAGGAGAC | -0.135
GCATCCTA | -0.116
ACATAGCG | -0.0518
CTTTGCAC | 0.0726
ACCGCACG | -0.111
ACTCGCAC | -0.0164
ATATAGTG | 0.329
GAAGAGCC | -0.193
AGTCCGTA | -0.00293
CCCCTATC | -0.225
AGGTCATC | -0.299
GCCCCAAC | -0.164
CCCGTCGG | -0.203
GTTCACTA | 0.0607
CAATTGCG | 0.183
AATGTTCC | 0.0873
CTCGTTCA | -0.139
CTTAAATC | 0.0452
TCAAGTAA | 0.206
GCGTTCAA | -0.0793
ATAAGCCG | 0.0875

Sequence | PBM 8-mer E-score
ACAATTAT | 0.378
ATTTGTGG | 0.0909
ACCAGACT | -0.212
ACGAAGTG | -0.0845
CCAGTTAC | 0.14
ATCCCAGG | -0.151
CCTAAAAA | 0.000513
TGGCAAAA | 0.0112
AAGACGGC | -0.141
GAGTGCAA | 0.0672
GAATCTAC | -0.168
CTTAGTTC | 0.09
ACCGTTCT | -0.0781
CGCAATGC | -0.0897
ACCACAGT | -0.0435
ATGTTATG | 0.152
TCAAAGGA | -0.0398
CAGGACCC | -0.151
CGCAGTGA | -0.186
GTAGATAC | 0.111
CACCACTA | 0.0613
CCAGGACG | -0.236
GCAGGTCC | -0.225
CCACGAAC | -0.169
ACATGACG | -0.073

Sequence | PBM 8-mer E-score
ATTGTAAC | 0.297
AAGTTACG | 0.231
GCAGAAAC | -0.0778
AGATCGCG | -0.153
GCTAGATA | 0.0558
GACACGCA | -0.158
ACTAAAAG | 0.233
CTAAGAGA | 0.0176
GTATGGTA | 0.153
TATAGTCA | 0.226
CCAGACTC | -0.209
AAGCTGAG | -0.185
GAGAGCAC | -0.281
GACAGTAC | -0.0849
CGAGAACC | -0.191
CCCCTAGG | -0.311
AATTTTGA | 0.195
GATCAGTA | -0.0683
CCAAGGAA | -0.256
AGACTTTG | 0.164
AGGGGGGG | -0.254
ACTGCTAG | -0.177
CCCGTCGA | -0.154
GATAAAAA | 0.273
AAAGTGTC | 0.138

Sequence | PBM 8-mer E-score
ACTATGGA | -0.046
CCAAGTAG | 0.0793
CCTGGTCG | -0.203
CGAGATTC | -0.0719
CTGGCTGC | -0.258
CGTCCCTA | -0.147
CATGATAC | 0.111
ATTTTTTC | 0.132
ATATACTG | 0.322
AGGCAAGC | -0.342
CGAATGAA | 0.149
CTTTTGCC | -0.164
GGACAGCA | -0.053
ATTTCCTG | 0.129
GAGACCCC | -0.214
CCCCAAGG | -0.329
CTGCTTCA | -0.186
CAAAATTA | 0.3
AAATCCAC | 0.0368
GTTGCACA | -0.193
CCAACTGA | -0.0529
CGTCATAA | 0.142
AAACATGT | 0.27
GTACGATA | 0.0885
AACGTTTA | 0.214

Sequence | PBM 8-mer E-score
GCCACTCC | -0.235
ATTCACAG | 0.187
ATGAGAGG | -0.197
AGCCCGTA | -0.113
ACGAAGAA | -0.00559
AGAGCTTG | -0.246
CCCGTCGC | -0.261
AAACACCC | -0.12
ACGGAATA | 0.211
ACGCCGGA | -0.0856
ACAATGAA | 0.0744
GGCTTGAC | -0.139
CCCCCCAG | -0.364
CGCTGTGA | -0.0181
AGCCGGTA | -0.242
ATTGGTCG | 0.121
GGGACAGA | -0.12
GATTACAA | 0.188
CCGGCGCA | -0.0431
CAAGACAC | -0.233
CGTACTCA | -0.0376
CGCGACGC | -0.188
TCAAGCGA | -0.194
CGAAACTA | 0.197
GGTCATGA | 0.0267

Sequence | PBM 8-mer E-score
CAGGTGAC | -0.0331
CGGTCCTC | -0.336
CTCATAAA | 0.0815
ATACCTGA | -0.0883
CCTAGACA | -0.212
CGATTTGC | -0.00476
ATCTAGAG | -0.0603
ATCTATGA | 0.0316
AGGCCCCG | -0.362
AGTGCAAT | 0.109
CCTCGCGC | -0.229
ACCTCATA | 0.0878
AGAGCTCA | -0.176
CTCGTGTA | -0.0442
GCGATCGC | -0.0216
GGAGGTAA | -0.0793
ATGTGTAG | 0.124
ACTTGTCA | 0.0131
CGGAGGAC | -0.434
AACGGGTA | -0.0158
AAAAGTAG | 0.0505
CACCGACA | -0.184
AGAGTGAG | -0.037
AGCAAGAC | -0.13
AAACACAA | 0.245

Sequence | PBM 8-mer E-score
ACACGCCG | -0.0975
GTGCCCGA | -0.123
AAGTACTG | 0.0993
AGACGCGA | 0.0502
CTTGCGTA | -0.0596
ACATCCCG | 0.0723
ATATGTTA | 0.423
TACCCTGA | -0.207
CTGACGAC | -0.211
CTTGCAAG | 0.114
ATAGCGTA | 0.129
AATGAGGA | -0.0863
ACAGCATC | -0.122
ATTAATTG | 0.391
ACGTTCCC | -0.225
CCAATAGC | 0.0224
CTGGACAG | -0.288
CACACCTC | 0.0325
AAACGATA | 0.14
ATTTTAGG | -0.00392
ATGGGAAG | -0.172
AACTTGTG | 0.102
AGAATCTA | 0.0548
CGTCCAAA | -0.0948
ATCCTAAG | -0.0828

Sequence | PBM 8-mer E-score
GTTTCCTA | -0.0222
ACAGCAAC | 0.11
CGTATCAC | -0.0677
CATTGTAC | 0.151
AAAACGGA | -0.0527
GATACAAA | 0.247
AAAGACGT | 0.0386
CATGGTAG | -0.105
CAGCGGGG | -0.275
AAGCGTGG | -0.223
GACACGGA | -0.171
CCAATACG | 0.141
AAGAAATT | 0.26
GACCTACA | -0.0129
AGAACGCT | -0.0355
CTGCAATA | 0.101
GAGATACA | -0.0187
AGGATCAG | -0.108
TTCCAGAA | 0.055
CTTACCCA | -0.114
GGATTACC | -0.152
TGTGACAA | 0.0246
GATAGGAA | -0.0142
ACTTCAGC | -0.0718
CCCATACG | -0.215

Sequence | PBM 8-mer E-score
CAATATTG | 0.377
AGATTCAA | 0.0584
AATTGTCA | 0.155
CGGGGCCC | -0.333
TAGACAGA | -0.025
ACCGATTG | -0.103
AACATGCT | 0.048
GTAACGAA | 0.0156
CAGCCAGA | -0.205
GAAAGCTC | -0.277
AAAAGAGT | 0.207
AGAGAGGC | -0.343
CGTATGCA | -0.0333
CTGGCATA | 0.0662
TCTAGTCA | -0.0532
CACCACGC | -0.299
CAACGAGG | -0.252
CATAAGCC | -0.102
GAGGGTCA | -0.272
GTACATGA | 0.066
TGCTCAAA | 0.096
CCGCGGTA | -0.161
CAACGAGA | -0.0564
GCTCTTAC | -0.0718
ATATCGAG | 0.208

Sequence | PBM 8-mer E-score
ACGAAGCA | -0.113
GACTGAGC | -0.176
CATCATAC | 0.0279
ATTATCGA | 0.24
GGGGTCGA | -0.147
GCAAATAC | 0.234
AATGCTCT | -0.0695
CCCTCCTA | -0.211
AATGTTTG | 0.212
GATGGAAC | -0.0323
GCCTAGTA | -0.0921
AGAGTTAC | 0.206
CATTATAA | 0.389
AAGCATAG | -0.033
ACAGTTGG | -0.055
CGAGCTAA | 0.0133
AGGCCTAT | -0.235
GCTAATGA | -0.138
GATGCAAA | 0.0673

From the supplement of paper PMC4466236
